# PubChem BioAssay AID881 (National Center for Advancing Translational Sciences (NCATS), 2007)
# Where “and” joins values, the source holds several entries; their conditions need not be identical. Equal entries are not always repeated. Screen size: about 110,000 compounds; about 610 (0.55%) were called active. The shares of active, inactive and inconclusive entries below differ from those in the screen. The call rests on the fitted dose curve; in most records, active means well fitted inhibition curve with a large enough effect; inconclusive means small, poorly fitted or top-dose-only effect; inactive means no such curve, though single readings can be large or run the other way. A potency beside an inconclusive call is a rough fit, not a confirmed value.
# Target: Polyunsaturated fatty acid lipoxygenase ALOX15B (Homo sapiens) (UniProt O15296)
# Assay: qHTS Assay for Inhibitors of 15-hLO-2 (15-human lipoxygenase 2); further: nearly all actives have a fitted effect of over 60% in size
# Conditions: purified 15hLO-2, xylenol orange hydroperoxide absorbance; series mostly up to 57.1 µM
# Procedure, shortened: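 Read-out: hydroperoxide product oxidises ferrous iron, measured as xylenol orange complex via the 573-to-405 nm absorbance ratio after 30 min. Reaction: 50 nM enzyme, 15 min compound preincubation, 45 uM arachidonic acid, 90 min RT, Hepes pH 7.5 with Triton X-100.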
# On the % scale 0 is the no-effect control and ±100 the full control effect; potency means the concentration at half of the fitted maximal effect; tags describe the fitted curve by direction and shape.
# Chain of UniProt O15296 (O15296 whole entry, looked up): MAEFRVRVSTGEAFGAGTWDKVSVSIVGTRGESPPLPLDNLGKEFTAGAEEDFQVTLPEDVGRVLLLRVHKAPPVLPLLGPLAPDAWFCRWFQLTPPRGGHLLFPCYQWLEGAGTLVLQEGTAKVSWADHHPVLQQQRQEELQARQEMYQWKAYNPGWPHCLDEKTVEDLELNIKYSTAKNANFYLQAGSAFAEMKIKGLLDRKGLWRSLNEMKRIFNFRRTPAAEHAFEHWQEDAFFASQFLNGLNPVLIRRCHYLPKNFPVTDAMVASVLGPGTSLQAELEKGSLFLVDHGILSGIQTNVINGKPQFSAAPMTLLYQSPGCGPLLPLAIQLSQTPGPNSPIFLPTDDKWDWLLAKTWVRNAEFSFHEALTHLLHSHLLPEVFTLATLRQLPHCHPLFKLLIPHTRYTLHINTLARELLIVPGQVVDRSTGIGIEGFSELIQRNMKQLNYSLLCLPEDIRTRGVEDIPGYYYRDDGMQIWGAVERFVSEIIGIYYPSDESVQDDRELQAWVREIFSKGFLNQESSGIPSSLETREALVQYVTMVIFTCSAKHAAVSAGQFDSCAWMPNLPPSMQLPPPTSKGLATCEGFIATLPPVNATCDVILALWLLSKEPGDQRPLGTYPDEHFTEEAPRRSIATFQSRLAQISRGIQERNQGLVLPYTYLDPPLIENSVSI
SMILES,Potency,"activity change, negative = inhibition"
ClCCNc1nc2ccc(Cl)cc2[nH]1,"inconclusive: 0.158 µM [inhibitor, full curve, poor fit]",
O=C(O)C[C@H]1NCc2cc3ccccc3nc21,,inactive: -11.5% [at 11.4 µM]
CC1=C(O)C(=O)C=C2C1=CC=C1[C@]2(C)CC[C@@]2(C)C3C[C@](C)(C(=O)O)CC[C@@]3(C)CC[C@@]12C (some centres undefined),active: 3.98 µM,
O=C1NC(=O)C(=Cc2cn(CCOc3ccc4c(c3)OCO4)c3ccccc23)C(=O)N1,"inconclusive: 20 µM [inhibitor, single point]",
CC1(C)[C@@H]2CC[C@]1(C)CN(CCC[N+](C)(C)C)C2,,inactive: -4.71% [at 11.4 µM]
CC(C)CC(C)Nc1ccc(Nc2ccccc2)cc1 (centres undefined),active: 1.58 µM,
CC(=O)[O-].CC(=O)[O-].O.O.[Cd+2],"inconclusive: 50.1 µM [inhibitor, partial curve, poor fit]",
CCCCn1c(-c2nn(C)cc2Cl)n[nH]c1=S,"inconclusive: 39.8 µM [inhibitor, single point]",
COc1ccc2c(c[n+](C)c3c4cc5c(cc4ccc23)OCO5)c1OC,active: 12.6 µM,
CCOC(=O)c1c(-n2c(C)cc(/C=C3\C(=O)NC(=O)N(C)C3=O)c2C)sc2c1CCCC2,"inconclusive: 15.8 µM [inhibitor, partial curve]",
COc1ccc(/C=C2/C(=O)NC(=O)N(C3CCCCC3)C2=O)cc1CSc1ccccn1,"inconclusive: 20 µM [inhibitor, partial curve]",
CC(=O)NNc1ccccc1,"inconclusive: 20 µM [inhibitor, partial curve]",
c1ccc(CN2CCC3(CCc4ccccc43)CC2)cc1,inactive,
C=CCn1c(O)c(C(C)=Nc2ccc(N(C)C)cc2)c(=O)[nH]c1=O,inactive,
O=c1c2ccccc2nc(CSc2ncnc3nc[nH]c23)n1-c1ccccc1,inactive,
COc1ccc(OC)c(C2C(C#N)=C(N)Oc3c2c(C)nn3-c2ccc(C)cc2)c1 (centres undefined),"inconclusive: 2 µM [inhibitor, full curve, poor fit]",
CC[C@H](CO)NC(=O)[C@@H]1C=C2c3cccc4[nH]cc(c34)C[C@@H]2N(C)C1,inactive,
CCOC(=O)c1c(-n2c(C)cc(C=C3C(=O)NC(=S)NC3=O)c2C)sc2c1CCCC2,"inconclusive: 10 µM [inhibitor, partial curve]",
CCN(CC)C(=O)N[C@H]1C[C@H]2c3cccc4[nH]cc(c34)C[C@@H]2N(C)C1,inactive,
Cc1cccc(C2=NCC(=O)N(CC(=O)NCc3ccco3)c3sc4c(c32)CCCC4)c1,"inconclusive: 3.16 µM [inhibitor, single point]",

SMILES,Potency,"activity change, negative = inhibition"
Oc1ccc(/C=N/NP(=S)(c2ccccc2)c2ccccc2)c(O)c1O,"inconclusive: 12.6 µM [inhibitor, partial curve, poor fit]",
Cc1cc(Cl)ccc1OCC(=O)N1CCN(C)CC1,inactive,
CC(C)Nc1ccc(Nc2ccccc2)cc1,"inconclusive: 1 µM [inhibitor, full curve]",
COc1cc(Cn2c(N)c(C(=O)NCc3ccco3)c3nc4ccccc4nc32)cc(OC)c1OC,"inconclusive: 31.6 µM [inhibitor, single point]",
Cc1cc(C)cc(N2C(=O)NC(=O)/C(=C\c3cccn3-c3ccc(Cl)cc3)C2=O)c1,"inconclusive: 20 µM [inhibitor, partial curve, poor fit]",
COc1ccc(C(=O)Nc2ccccc2-c2nnn(CC(=O)Nc3ccc4c(c3)OCCO4)n2)cc1,"inconclusive: 25.1 µM [inhibitor, single point]",
O=C1c2ccccc2C(=O)N1SC1CCCCC1,"inconclusive: 10 µM [inhibitor, partial curve]",
Clc1ccc(C(c2ccc(Cl)cc2)n2cc[n+](C[C@@H](OCc3ccc(Cl)cc3Cl)c3ccc(Cl)cc3Cl)c2)cc1,active: 25.1 µM,
COc1cc(C=C(C#N)C#N)cc(O)c1O,"inconclusive: 6.31 µM [inhibitor, partial curve]",
Nc1ncc([N+](=O)[O-])s1,"inconclusive: 25.1 µM [inhibitor, partial curve, poor fit]",
CCCc1[nH]nc2c1C1(C(=O)N(Cc3ccccc3)c3ccccc31)C(C(=O)OC)=C(N)O2 (centres undefined),"inconclusive: 39.8 µM [inhibitor, single point]",
O=C(O)/C=C\c1ccc[c]([Sb](=[O])([OH])[OH])c1,,inactive: 38% [at 11.4 µM]
CC(=O)C(Sc1ncnc2c1nnn2-c1ccc(F)cc1)C(=O)N(C)C (centres undefined),"inconclusive: 12.6 µM [inhibitor, single point]",
Oc1ccc(Cl)cc1Cc1ccccc1,"inconclusive: 15.8 µM [inhibitor, partial curve]",
CCCc1[nH]nc2c1C1(C(=O)N(CC(N)=O)c3ccccc31)C(C(=O)OC)=C(N)O2 (centres undefined),inactive,
C1CNC2NCCNC2N1 (centres undefined),inactive,
CCCCC/C=C\C/C=C\C/C=C\C/C=C\CCCC(=O)N(Cc1ccc(O)c(Cl)c1)Cc1ccc(O)c(Cl)c1,"inconclusive: 8.91 µM [inhibitor, single point]",
CC(C)Oc1cc(-n2c(=S)[nH]c3ccccc3c2=O)c(Cl)cc1Cl,"inconclusive: 25.1 µM [inhibitor, partial curve]",
CCCCN1C(=O)/C(=C\c2ccco2)C(=O)N(CCc2ccccc2)C1=O,"inconclusive: 31.6 µM [inhibitor, single point]",
CC(=O)NC1CC2CCCC(C1)N2C(=O)Nc1ccccc1 (centres undefined),"inconclusive: 0.251 µM [inhibitor, full curve, poor fit]",

SMILES,Potency,"activity change, negative = inhibition"
c1cc2c(cc1C1OC[C@@H]3C(c4ccc5c(c4)OCO5)OCC13)OCO2 (some centres undefined),"inconclusive: 0.158 µM [inhibitor, single point]",
COc1ccc(-c2oc3cc(OC)ccc3c(=O)c2O)cc1,"inconclusive: 3.98 µM [inhibitor, full curve]",
C=CCOc1ccc(CC2C(=O)N(C)C(=O)N(C)C2=O)cc1,"inconclusive: 15.8 µM [inhibitor, single point]",
COC(=O)C1=Nc2ccccc2/C1=C\c1c(O)n(-c2ccc(OC)cc2)c(=O)[nH]c1=O,inactive,
CCOc1ccccc1N1C(=O)NC(=O)/C(=C/c2ccc3c4c(cccc24)CC3)C1=O,"inconclusive: 31.6 µM [inhibitor, single point]",
CN(C)[C@@H]1C(=O)C(C(N)=O)=C(O)[C@]2(O)C(=O)C3=C(O)c4c(O)ccc(Cl)c4[C@](C)(O)[C@H]3C[C@@H]12,inactive,
O=C(O)C(O)(c1ccc(-c2ccccc2)cc1)c1ccc(-c2ccccc2)cc1,,inactive: -11.8% [at 11.4 µM]
c1ccc(NNc2ccccc2)cc1,inactive,
O=C(O)c1ccccc1-c1c2cc(Br)c(=O)cc-2oc2[c]([Hg])c(O)c(Br)cc12,active: 10 µM and active: 3.98 µM,
C[N+]1=C2CCCCCN2C(O)(c2ccccc2)C1 (centres undefined),"inconclusive: 39.8 µM [inhibitor, single point]",
S=C(S)N1CCCC1,"inconclusive: 25.1 µM [inhibitor, single point] and inconclusive: 31.6 µM [inhibitor, partial curve]",
CC1=CC(=C2C(=O)NC(=S)NC2=O)C=C(C(F)(F)F)N1C,"inconclusive: 15.8 µM [inhibitor, partial curve]",
CCCCC/C=C\C/C=C\C/C=C\C/C=C\CCCC(=O)NCc1ccc(O)c(OC)c1,,inactive: 3.34% [at 0.0915 µM]
CCCCOCCCn1c(N)c(C(=O)OCCOC)c2nc3ccccc3nc21,inactive,
NC(N)=Nc1ccc2[nH]c3c(c2c1)C[C@]1(O)[C@@H]2Cc4ccc(O)c5c4[C@]1(CCN2CC1CC1)[C@H]3O5,"inconclusive: 20 µM [inhibitor, partial curve]",
CC1OC(=O)C(C(C)C)NC(=O)C(C(C)C)OC(=O)C(C(C)C)NC(=O)C(C)OC(=O)C(C(C)C)NC(=O)C(C(C)C)OC(=O)C(C(C)C)NC(=O)C(C)OC(=O)C(C(C)C)NC(=O)C(C(C)C)OC(=O)C(C(C)C)NC1=O (centres undefined),"inconclusive: 39.8 µM [inhibitor, single point]",
O=C(NC(Oc1ccccc1)C(Cl)(Cl)Cl)c1ccccc1 (centres undefined),"inconclusive: 3.98 µM [inhibitor, single point]",
O=C1C=CC(=O)c2c(O)cccc21,active: 3.16 µM,
CCNCCC1(CC)C(=O)NC(=O)NC1=O,,inactive: -1.43% [at 11.4 µM]
